# Measured values taken from PubChem BioAssay AID1671194 (National Center for Advancing Translational Sciences (NCATS), 2021).
# About 240 (0.17%) of roughly 140,000 compounds were called active. Inconclusive results, whose numbers are uncertain, are shown with a selection of clear calls. The call rests on the fitted dose curve; in most records, active means well fitted inhibition curve with a large enough effect; inconclusive means small, poorly fitted or top-dose-only effect; inactive means no such curve, though single readings can be large or run the other way. Potencies beside an inconclusive call are fits to weak or partial responses and may not hold up.
# Test: Primary qHTS assay for inhibitors of alpha-synuclein gene (SNCA) expression; further: nearly all actives have a fitted effect of over 45% in size;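 on activity change, negative = inhibition: plate controls were DMSO cells for no effect and cell-free wells for full effect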
# Settings: HEK-293 SNCA-luciferase knock-in, luminescence, 24 h; activity change, negative = inhibition: at 57.2 µM (top of the series) unless noted
# Potency means the concentration at half of the fitted maximal effect; tags describe the fitted curve by direction and shape.
Compound,"activity change, negative = inhibition",Potency
COc1cc(NC(=O)C2CCN(C(=O)c3ncn4c3COC(c3ccccc3)C4)CC2)cc(OC)c1 (centres undefined),inactive: 25.1%,
COc1ccc(NC(=O)O[C@@H]2CO[C@H]3[C@@H]2OC[C@@H]3Nc2nccc(-c3cccc(F)c3)n2)cc1,inactive: 1.42%,
CCCN1C(=O)c2[nH]nc(-c3ccccc3O)c2C1c1cccc(OCc2ccccc2)c1 (centres undefined),,"inconclusive: 39.8 µM [inhibitor, single point]"
COc1ccc(-c2noc(COc3cc(C)c(Br)c(C)c3)n2)cc1OC,,"inconclusive: 2 µM [inhibitor, full curve]"
COc1ccc(OC)c(CNC(=O)c2cc3cc4ccc(OC)cc4nc3o2)c1,,"inconclusive: 39.8 µM [inhibitor, partial curve, poor fit]"
COCCNC(=O)c1nc2cccnc2n(Cc2ccccc2)c1=O,inactive: -8.08%,
C#CCCC(=O)N(Cc1cccc(C)c1)Cc1ccccc1OC,inactive: -30%,
O=C(NC1CCCN(c2cc(-c3ccc(F)cc3)[nH]n2)C1)c1cc2ccccc2[nH]1 (centres undefined),,"inconclusive: 35.5 µM [inhibitor, single point]"
COc1ccc(OCCSc2nc(C)c(Cc3ccccc3)c(=O)[nH]2)cc1,,"inconclusive: 7.08 µM [inhibitor, single point]"
Cc1ccc(CN2CCC(CNC(=O)c3cc4ccc5cccnc5c4[nH]3)CC2)cc1,,"inconclusive: 17.8 µM [inhibitor, partial curve, poor fit]"
CC(C)CNC(=O)c1ccc2oc(-c3ccccn3)nc2c1,,"inconclusive: 15.8 µM [inhibitor, single point]"
COC(=O)N1CCC(C(=O)N2CCC(N3Cc4ccccc4C3=O)CC2)CC1,inactive: -6.64%,
Cc1ccc(C(=O)N2C[C@H](c3nc(-c4ccncc4)no3)[C@@H](C)C2)c(C)c1,inactive: -26.1%,
Cc1cc(OCC(=O)Nc2cc(-c3nc4ccccc4[nH]3)ccc2C)ccc1Cl,inactive: -2.5%,
CN(C)[C@@H]1CN(C(=O)C2CCCC2)CC[C@@H]1CO,,"inconclusive: 31.6 µM [inhibitor, single point]"
COc1ccc(CN[C@H]2C[C@H]3C(=O)NC[C@@H](CCC(=O)NCc4ccccc4)N3C2)cc1,inactive: 26.8%,
c1ccc(CCCc2noc(-c3ccc(NCc4ccccn4)nc3)n2)cc1,inactive: 119%,
CCOc1ccc(NC(=O)C2Cn3cccc3C(=O)N2)cc1 (centres undefined),,"inconclusive: 2.51 µM [inhibitor, single point]"
COc1ccccc1N1CCN(C(=O)c2cnn(-c3ccc(C)c(C)c3)c2C2CCN(C(=O)OC(C)(C)C)CC2)CC1,,"inconclusive: 1.78 µM [inhibitor, full curve, poor fit]"
CCN(CC)CCNC(=O)c1ccc2nc(-c3ccccc3)c(-c3ccc(CN4CCC(n5c(=O)[nH]c6ccccc65)CC4)cc3)nc2c1,,"inconclusive: 12.1 µM [inhibitor, full curve, poor fit]"
COc1ncccc1-c1nc2cc(C(=O)Nc3cccc(Cl)c3)ccc2o1,inactive: 79%,
O=C1Nc2ccc(-c3ccccc3F)cc2C(=O)N2CCN(C(=O)C3CCNCC3)C[C@H]12,,"inconclusive: 12.6 µM [inhibitor, single point]"

Compound,"activity change, negative = inhibition",Potency
CCc1ccc(NC(=O)c2ccc3oc(=O)n(Cc4ccccc4)c3c2)cc1,,"inconclusive: 39.8 µM [inhibitor, single point]"
CNC(=O)c1cccc(-c2cnc3[nH]cc(CC(=O)Nc4ccccc4C)c3c2)c1,inactive: 36.9% [at 87.6 µM],
CCc1cnc(N)nc1NCc1nc(C(=O)NC)no1,,"inconclusive: 8.91 µM [inhibitor, single point]"
COc1cccc(C(=O)N2CC[C@@H]3CN(S(C)(=O)=O)[C@@H]3C2)c1C,,"inconclusive: 39.8 µM [inhibitor, single point]"
CN(C)c1cccc(Oc2nnnn2[C@H]2CO[C@H]3[C@@H]2OC[C@@H]3NC(=O)c2cncnc2)c1,,"inconclusive: 3.16 µM [inhibitor, full curve, poor fit]"
O=C(c1cc(Cl)ccc1F)N1CCN(C(=O)c2nnn3c2COC(c2ccccc2)C3)CC1 (centres undefined),inactive: 3.27%,
Cc1cc(C)cc(NC(=O)N2CCC(Oc3ncccc3C(=O)N(C)C)C2)c1 (centres undefined),inactive: 3.24%,
CNC(=O)C1CCN(Cc2cc3ccccc3n2Cc2ccccc2C)CC1,,"inconclusive: 25.1 µM [inhibitor, single point]"
CCn1cc(CN2C[C@@H](CO)[C@H](NC(=O)COC)C2)cn1,,"inconclusive: 2 µM [inhibitor, full curve]"
CCCOc1ccc(C(=O)Nc2ccc(NC(=O)c3cccc(Cl)c3)cc2)cc1,,"inconclusive: 25.1 µM [inhibitor, partial curve, poor fit]"
Cc1ccc(C)c(N2CCN(C(=O)c3cc(S(=O)(=O)N4CCCC4)c[nH]3)CC2)c1,,"inconclusive: 5.62 µM [inhibitor, partial curve, poor fit]"
COCCN1C(=O)CCc2cc(NC(=O)c3ccc4c(c3)OCO4)ccc21,inactive: 37.9%,
Cc1cccc(-n2c(SCC(=O)Nc3ccccc3Cl)nc3n[nH]c(C)c3c2=N)c1,,"inconclusive: 31.6 µM [inhibitor, single point]"
O=C(Cc1ccc(F)cc1)N1CCc2nc(-c3ccccc3)nc(-c3ccc(Cl)cc3)c2C1,,"inconclusive: 7.08 µM [inhibitor, partial curve]"
CCOc1ccc(Nc2c(S(=O)(=O)c3ccc(C)cc3)cnc3ccc(OC)cc23)cc1,,"inconclusive: 39.8 µM [inhibitor, single point]"
C[C@@H]1C(=O)O[C@H]2[C@H]1CC[C@@]1(C)Cc3sc(NS(=O)(=O)c4ccc(F)cc4F)nc3[C@@H](C)[C@H]21,,"inconclusive: 8.91 µM [inhibitor, single point]"
COc1cccc(-n2cc(C(=O)NCCc3cccc(C)c3)c3ccccc3c2=O)c1,,"inconclusive: 25.1 µM [inhibitor, partial curve, poor fit]"
CC1(COc2ccccc2)COc2ccc(C(=O)NCc3ccccc3)cc2N1 (centres undefined),,"inconclusive: 56.2 µM [inhibitor, single point]"
O=C1CC2(CCN(C(=O)C3CCCN3C(=O)c3ccc(Cl)nc3)CC2)Oc2ccccc2N1 (centres undefined),inactive: 17.2%,
COC(=O)c1ccc(NC(=O)N2CCc3c([nH]c4ccccc34)C2c2ccc(C)cc2)cc1 (centres undefined),,"inconclusive: 6.31 µM [inhibitor, partial curve]"
CSc1ccc(CCNC(=O)c2sc3ncccc3c2-n2cccc2)cc1,,"inconclusive: 39.8 µM [inhibitor, single point]"
NC(=O)c1cc[nH]c1C1CCCN(Cc2ccc3c(c2)CCO3)C1 (centres undefined),,"inconclusive: 39.8 µM [inhibitor, single point]"

Compound,"activity change, negative = inhibition",Potency
O=C(COc1ccccc1F)NC1CC(=O)N(c2ccc3c(c2)OCCO3)C1 (centres undefined),,"inconclusive: 35.5 µM [inhibitor, single point]"
COc1ccc(Cl)cc1NC(=O)c1cc(-c2ccc[nH]2)n[nH]1,,"inconclusive: 39.8 µM [inhibitor, single point]"
Cc1[nH]cnc1-c1nccn1Cc1nnnn1-c1ccccc1,,"inconclusive: 1.78 µM [inhibitor, partial curve, poor fit]"
Brc1ccc(-c2ccnc3nc(C4CCCO4)nn23)s1 (centres undefined),inactive: 18.5%,
Cc1ccc(-c2nc(C3CC(=O)N(c4ccc(F)c(Cl)c4)C3)no2)cc1C (centres undefined),,"inconclusive: 39.8 µM [inhibitor, single point]"
Cc1ccc(NC(=O)Cn2c(-c3ccccc3)nc(C)cc2=O)c(C)c1,,"inconclusive: 28.2 µM [inhibitor, partial curve, poor fit]"
CCCCNC(=O)CCCN1C(=O)COc2ccc(C(C)(C)CC)cc21,,"inconclusive: 39.8 µM [inhibitor, single point]"
COCCNC(=O)CCc1nc(C2CCCN2C(=O)c2ccccc2)no1 (centres undefined),,"inconclusive: 3.16 µM [inhibitor, single point]"
COc1cccc(N2C(=O)NC(=NC3CCCC3)C23CCCN(Cc2ccc(N(C)C)cc2)C3)c1 (centres undefined),,"inconclusive: 39.8 µM [inhibitor, single point]"
CCOC(=O)c1c(C)[nH]c(C)c1S(=O)(=O)N1CCCC(C(=O)N2CCN(c3ccc(Cl)cc3)CC2)C1 (centres undefined),,"inconclusive: 22.4 µM [inhibitor, single point]"
CCOC(=O)c1[nH]c(C)c(CCC(=O)N2CCN(c3cc(Cl)ccc3C)CC2)c1C,,"inconclusive: 39.8 µM [inhibitor, single point]"
CSc1ccc(-c2cccc(C(=O)NCC(=O)NCCc3ccc(F)cc3)c2)cc1,inactive: 7.22%,
COc1ccccc1Cn1c(CNS(=O)(=O)c2ccc(Cl)s2)nc2cccnc21,,"inconclusive: 39.8 µM [inhibitor, single point]"
COc1ccccc1-c1cccc(CN2CCCC(C(=O)N3CCCC(C)C3)C2)c1 (centres undefined),,"inconclusive: 10 µM [inhibitor, partial curve]"
O=C(NCc1ccc(-c2cnc3c(Oc4ccccc4)nccn23)cc1)c1cccc(O)c1,inactive: -4.18% [at 87.6 µM],
CCS(=O)(=O)N1CCCC(Cc2ncc(C)n2Cc2ccc(F)cc2)C1 (centres undefined),inactive: 14.6%,
CCN1c2cc(C(=O)NCc3ccc(SC)cc3)ccc2C(=O)N2CCCCCC21 (centres undefined),inactive: 16.3%,
CCCCCC(=O)N1CCC(O)(c2csc(CN3CCN(C)CC3)n2)CC1,,"inconclusive: 12.6 µM [inhibitor, single point]"
CCOC(=O)CCCOc1cccn2c(=O)c(-c3cc(C)n(-c4ccccc4C)n3)c(C)nc12,inactive: 5.9%,
COCCNC(=O)c1cc(-c2ccc([S+](C)(=O)[O-])cc2)nc2c1cnn2C,inactive: 41.8%,
